Assay results from publication PMC9911399, “Two distinct binding modes provide the RNA-binding protein RbFox with extraordinary sequence specificity”.
Positions count from the first letter of the chain named. The list shows a part of the results.

B1: AUGAAUU (DNA:RNA)
RNA: GGGAGACCGGAAUUCAGAUUGUCCAUGAAUUUUAAAUCCCGUCGUAGCCACCA
DNA 1: CAATCTGAATTCCGGTCTCCC
DNA 2: TGGTGGCTACGACGGGATT
B2: CCGUAAC (DNA:RNA)
RNA: B1 RNA with A25C, U26C, A28U, U30A, U31C
DNA 1: CAATCTGAATTCCGGTCTCCC
DNA 2: TGGTGGCTACGACGGGATT
B3: CAGUGUG (DNA:RNA)
RNA: B1 RNA with A25C, U26A, A28U, A29G, U31G
DNA 1: CAATCTGAATTCCGGTCTCCC
DNA 2: TGGTGGCTACGACGGGATT
B4: UCUAGGC (DNA:RNA)
RNA: B1 RNA with A25U, U26C, G27U, A29G, U30G, U31C
DNA 1: CAATCTGAATTCCGGTCTCCC
DNA 2: TGGTGGCTACGACGGGATT
B5: CACCGAA (DNA:RNA)
RNA: GGGAGACCGGAAUUCAGAUUGUCCCACCGAAUUAAAUCCCGUCGUAGCCACCA
DNA 1: CAATCTGAATTCCGGTCTCCC
DNA 2: TGGTGGCTACGACGGGATT
B6: UUGAGUA (DNA:RNA)
RNA: B1 RNA with A25U, A29G, U31A
DNA 1: CAATCTGAATTCCGGTCTCCC
DNA 2: TGGTGGCTACGACGGGATT
B7: GACCGCU (DNA:RNA)
RNA: B5 RNA with C25G, A30C, A31U
DNA 1: CAATCTGAATTCCGGTCTCCC
DNA 2: TGGTGGCTACGACGGGATT
B8: ACCCUGU (DNA:RNA)
RNA: B1 RNA with U26C, G27C, A28C, A29U, U30G
DNA 1: CAATCTGAATTCCGGTCTCCC
DNA 2: TGGTGGCTACGACGGGATT
B9: CAGCGUA (DNA:RNA)
RNA: B5 RNA with C27G, A30U
DNA 1: CAATCTGAATTCCGGTCTCCC
DNA 2: TGGTGGCTACGACGGGATT
B10: GGCUACG (DNA:RNA)
RNA: B1 RNA with A25G, U26G, G27C, A28U, U30C, U31G
DNA 1: CAATCTGAATTCCGGTCTCCC
DNA 2: TGGTGGCTACGACGGGATT
B11: GGUACGC (DNA:RNA)
RNA: B1 RNA with A25G, U26G, G27U, A29C, U30G, U31C
DNA 1: CAATCTGAATTCCGGTCTCCC
DNA 2: TGGTGGCTACGACGGGATT
B12: CACGUGU (DNA:RNA)
RNA: B5 RNA with C28G, G29U, A30G, A31U
DNA 1: CAATCTGAATTCCGGTCTCCC
DNA 2: TGGTGGCTACGACGGGATT
B13: GCUACCU (DNA:RNA)
RNA: B1 RNA with A25G, U26C, G27U, A29C, U30C
DNA 1: CAATCTGAATTCCGGTCTCCC
DNA 2: TGGTGGCTACGACGGGATT
B14: GGCAAGA (DNA:RNA)
RNA: B1 RNA with A25G, U26G, G27C, U30G, U31A
DNA 1: CAATCTGAATTCCGGTCTCCC
DNA 2: TGGTGGCTACGACGGGATT
B15: GGCCGCC (DNA:RNA)
RNA: B5 RNA with C25G, A26G, A30C, A31C
DNA 1: CAATCTGAATTCCGGTCTCCC
DNA 2: TGGTGGCTACGACGGGATT
B16: UCAACCG (DNA:RNA)
RNA: B1 RNA with A25U, U26C, G27A, A29C, U30C, U31G
DNA 1: CAATCTGAATTCCGGTCTCCC
DNA 2: TGGTGGCTACGACGGGATT
B17: GUUCGGC (DNA:RNA)
RNA: B5 RNA with C25G, A26U, C27U, A30G, A31C
DNA 1: CAATCTGAATTCCGGTCTCCC
DNA 2: TGGTGGCTACGACGGGATT
B18: GUAUGGG (DNA:RNA)
RNA: B1 RNA with A25G, G27A, A28U, A29G, U30G, U31G
DNA 1: CAATCTGAATTCCGGTCTCCC
DNA 2: TGGTGGCTACGACGGGATT
B19: UUUGCAA (DNA:RNA)
RNA: B5 RNA with C25U, A26U, C27U, C28G, G29C
DNA 1: CAATCTGAATTCCGGTCTCCC
DNA 2: TGGTGGCTACGACGGGATT
B20: UUGGAUA (DNA:RNA)
RNA: B1 RNA with A25U, A28G, U31A
DNA 1: CAATCTGAATTCCGGTCTCCC
DNA 2: TGGTGGCTACGACGGGATT
B21: UCUCUGU (DNA:RNA)
RNA: B1 RNA with A25U, U26C, G27U, A28C, A29U, U30G
DNA 1: CAATCTGAATTCCGGTCTCCC
DNA 2: TGGTGGCTACGACGGGATT
B22: CAAGCAG (DNA:RNA)
RNA: B5 RNA with C27A, C28G, G29C, A31G
DNA 1: CAATCTGAATTCCGGTCTCCC
DNA 2: TGGTGGCTACGACGGGATT
B23: AGGAUGA (DNA:RNA)
RNA: B1 RNA with U26G, A29U, U30G, U31A
DNA 1: CAATCTGAATTCCGGTCTCCC
DNA 2: TGGTGGCTACGACGGGATT
B24: AAACGGA (DNA:RNA)
RNA: B5 RNA with C25A, C27A, A30G
DNA 1: CAATCTGAATTCCGGTCTCCC
DNA 2: TGGTGGCTACGACGGGATT
B25: ACGCCGC (DNA:RNA)
RNA: B1 RNA with U26C, A28C, A29C, U30G, U31C
DNA 1: CAATCTGAATTCCGGTCTCCC
DNA 2: TGGTGGCTACGACGGGATT
B26: UCCCUUC (DNA:RNA)
RNA: B5 RNA with C25U, A26C, G29U, A30U, A31C
DNA 1: CAATCTGAATTCCGGTCTCCC
DNA 2: TGGTGGCTACGACGGGATT
B27: GGGAUAG (DNA:RNA)
RNA: B1 RNA with A25G, U26G, A29U, U30A, U31G
DNA 1: CAATCTGAATTCCGGTCTCCC
DNA 2: TGGTGGCTACGACGGGATT
B28: CGAAUCU (DNA:RNA)
RNA: B1 RNA with A25C, U26G, G27A, A29U, U30C
DNA 1: CAATCTGAATTCCGGTCTCCC
DNA 2: TGGTGGCTACGACGGGATT
B29: UUUAAGU (DNA:RNA)
RNA: B1 RNA with A25U, G27U, U30G
DNA 1: CAATCTGAATTCCGGTCTCCC
DNA 2: TGGTGGCTACGACGGGATT
B30: ACCGUUG (DNA:RNA)
RNA: B1 RNA with U26C, G27C, A28G, A29U, U31G
DNA 1: CAATCTGAATTCCGGTCTCCC
DNA 2: TGGTGGCTACGACGGGATT
B31: ACUAAAU (DNA:RNA)
RNA: B1 RNA with U26C, G27U, U30A
DNA 1: CAATCTGAATTCCGGTCTCCC
DNA 2: TGGTGGCTACGACGGGATT

Molecular target: T1, RBFOX1 RRM RbFoxmut (Fox-RRM*) (Homo sapiens, UniProt Q9NWB1 109-208, R118D;E147R;N151S;E152T)
T1 sequence: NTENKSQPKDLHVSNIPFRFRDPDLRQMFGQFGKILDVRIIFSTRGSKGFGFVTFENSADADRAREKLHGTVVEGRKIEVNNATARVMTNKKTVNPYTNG
Experiment: EMSA; HiTS-Eq, 1 nM pool, 10 min; buffer printed only for the single-RNA assays: 10 mM Tris pH 7.5, 150 mM NaCl, 3.4 mM EDTA, 0.001% NP-40, 30 C
Details: tags: His6 N-terminal (pET28a); label: 5' 32P
How it was run: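 A pool of RNA with 7 randomized nucleotides, 5′-radiolabelled and with DNA-annealed flanks, was equilibrated at 1 nM for 10 min in 50 µL with purified RbFox RRM, wild type or mutant, across increasing protein concentrations. Free RNA was separated by 8% native PAGE, excised, reverse-transcribed, barcoded by PCR and sequenced. Relative association constants were obtained from read-count changes of each RNA species versus the control reaction and normalised to the cognate motif.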

| Binder | binding signal |
| --- | --- |
| B1 | 0.126 KA relative to UGCAUGU |
| B2 | 0.0767 KA relative to UGCAUGU |
| B3 | 0.208 KA relative to UGCAUGU |
| B4 | 0.125 KA relative to UGCAUGU |
| B5 | 0.0925 KA relative to UGCAUGU |
| B6 | 0.179 KA relative to UGCAUGU |
| B7 | 0.0966 KA relative to UGCAUGU |
| B8 | 0.12 KA relative to UGCAUGU |
| B9 | 0.167 KA relative to UGCAUGU |
| B10 | 0.184 KA relative to UGCAUGU |
| B11 | 0.113 KA relative to UGCAUGU |
| B12 | 0.147 KA relative to UGCAUGU |
| B13 | 0.0731 KA relative to UGCAUGU |
| B14 | 0.0528 KA relative to UGCAUGU |
| B15 | 0.0551 KA relative to UGCAUGU |
| B16 | 0.0927 KA relative to UGCAUGU |

| Binder | binding signal |
| --- | --- |
| B17 | 0.121 KA relative to UGCAUGU |
| B18 | 0.118 KA relative to UGCAUGU |
| B19 | 0.0855 KA relative to UGCAUGU |
| B20 | 0.0952 KA relative to UGCAUGU |
| B21 | 0.0824 KA relative to UGCAUGU |
| B22 | 0.0856 KA relative to UGCAUGU |
| B23 | 0.176 KA relative to UGCAUGU |
| B24 | 0.0605 KA relative to UGCAUGU |
| B25 | 0.14 KA relative to UGCAUGU |
| B26 | 0.0903 KA relative to UGCAUGU |
| B27 | 0.157 KA relative to UGCAUGU |
| B28 | 0.193 KA relative to UGCAUGU |
| B29 | 0.108 KA relative to UGCAUGU |
| B30 | 0.118 KA relative to UGCAUGU |
| B31 | 0.0808 KA relative to UGCAUGU |
